The campaign covered roughly 310,000 compounds. About 14,000 (4.5%) showed an effect of 50% or more. The effect is printed as a negative number. The list shows a part of the results.
The compounds below were run against human ether-à-go-go-related gene (hERG) potassium channel (human, UniProt Q12809) (assay: primary screen, population patch clamp on CHO cells stably expressing hERG).
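Note: peak tail current of the secondary pulse compared with the same well before compound.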

Sequence of human ether-à-go-go-related gene (hERG) potassium channel (Q12809 whole entry, looked up): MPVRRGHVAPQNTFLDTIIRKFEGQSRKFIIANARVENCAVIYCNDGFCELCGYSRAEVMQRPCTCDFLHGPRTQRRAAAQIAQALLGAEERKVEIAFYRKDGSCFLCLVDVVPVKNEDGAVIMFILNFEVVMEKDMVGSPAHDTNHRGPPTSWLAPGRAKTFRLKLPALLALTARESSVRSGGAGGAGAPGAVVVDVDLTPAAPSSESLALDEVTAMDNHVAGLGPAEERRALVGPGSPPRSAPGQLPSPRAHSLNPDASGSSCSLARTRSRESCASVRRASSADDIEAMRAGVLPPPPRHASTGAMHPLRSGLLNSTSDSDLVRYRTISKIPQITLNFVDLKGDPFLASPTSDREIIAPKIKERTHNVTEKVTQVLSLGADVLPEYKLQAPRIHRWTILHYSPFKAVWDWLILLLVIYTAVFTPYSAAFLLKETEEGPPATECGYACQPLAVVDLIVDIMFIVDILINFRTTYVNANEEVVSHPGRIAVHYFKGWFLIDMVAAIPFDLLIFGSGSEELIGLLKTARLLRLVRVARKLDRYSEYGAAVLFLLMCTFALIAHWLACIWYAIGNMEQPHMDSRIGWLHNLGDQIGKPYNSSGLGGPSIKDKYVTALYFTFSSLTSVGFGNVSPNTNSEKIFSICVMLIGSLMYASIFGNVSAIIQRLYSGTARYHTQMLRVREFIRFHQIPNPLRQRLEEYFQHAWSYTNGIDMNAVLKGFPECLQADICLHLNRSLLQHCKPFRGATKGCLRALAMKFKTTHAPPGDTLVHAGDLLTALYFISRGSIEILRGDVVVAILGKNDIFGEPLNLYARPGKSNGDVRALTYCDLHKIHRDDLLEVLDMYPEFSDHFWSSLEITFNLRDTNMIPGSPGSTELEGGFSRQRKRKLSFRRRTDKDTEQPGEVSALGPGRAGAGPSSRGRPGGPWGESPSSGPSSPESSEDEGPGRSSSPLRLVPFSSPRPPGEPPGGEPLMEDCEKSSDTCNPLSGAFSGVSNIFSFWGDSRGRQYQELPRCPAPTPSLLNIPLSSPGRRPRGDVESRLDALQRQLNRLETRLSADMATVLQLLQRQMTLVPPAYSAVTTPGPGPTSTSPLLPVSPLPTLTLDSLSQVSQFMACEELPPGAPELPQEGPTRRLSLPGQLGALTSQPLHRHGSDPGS

Row | SMILES | hERG current change (%, negative = inhibition) at 10uM [%]
1 | CCSc1nc2ccccc2n1Cc1nc(N)nc(N(C)C)n1 | -1.89
2 | Cl.OC(COc1ccc2c(c1)CCC2)CN1CCN(c2cccc(Cl)c2)CC1 (stereo not shown) | -10.4
3 | Cc1c(NC(=O)c2cccc(NC(=O)Cc3c(F)cccc3Cl)c2)c(=O)n(-c2ccccc2)n1C | -9.81
4 | Cn1c(N)c(S(=O)(=O)NCc2ccccc2Cl)c(=O)n(C)c1=O | 2.82
5 | O=C(NNc1ccc(Cl)cc1)c1cccs1 | 7.21
6 | O=C(C[n+]1cc(-c2ccccc2)n2c1CCCCC2)c1ccc(Br)cc1.[Br-] | -52.7
7 | O=c1cc([O-])nc(SCc2ccccc2)n1-c1ccc(F)cc1.[K+] | 4.95
8 | Cc1ccccc1C(=O)Nc1ccccc1-c1nnn(CC(=O)Nc2ccc3c(c2)OCCO3)n1 | -2.51
9 | C/C(=N\NC(=O)Cc1cc(=O)[nH][nH]1)c1cccc([N+](=O)[O-])c1 | 21.6
10 | c1ccc(CCNc2nc(-c3ccncc3)nc3ccccc23)cc1 | 3.71
11 | COc1ccc(-c2nn(-c3ccccc3)cc2CNC(=O)c2cccc([N+](=O)[O-])c2)cc1 | 13.9
12 | COc1ccccc1-c1ccc(SCc2cccc(F)c2)nn1 | 18
13 | CCN(CC)CCN1C(=O)C(=O)/C(=C(/O)c2c(C)[nH]c(C(=O)OC)c2C)C1c1ccc(C)o1 (stereo not shown) | 8.52
14 | Cc1ccc(C2(C(F)(F)F)NC(=O)N3CCCN=C3S2)cc1 (stereo not shown) | 16.5
15 | Cc1ccc(S(=O)(=O)C(C)C(=O)NCCS(=O)(=O)c2ccc(Cl)cc2)cc1 (stereo not shown) | -26.8
16 | CCCCn1nc(C(=O)N2CCc3ccccc32)c2ccccc2c1=O | -28.4
17 | CC(C)N(CCCNC(=O)Cn1ncc2c([nH]c3ccccc32)c1=O)Cc1ccccc1 | -48.1
18 | CCCc1cc(=O)[nH]c(SCC(=O)Nc2cccc(S(=O)(=O)N3CCCCC3)c2)n1 | -22.7
19 | COc1ccc(NC(=S)Nc2ccc(S(=O)(=O)N3CCOCC3)cc2)c(OC)c1 | 4.58
20 | CCN(CC)c1ccc(-c2n[nH]c(=S)n2-c2ccccc2)cc1 | 20.7
21 | CCOC(=O)c1cc(-c2ccccc2)n(CC(=O)Nc2ccc(OCC)cc2)c1C | 14
22 | c1ccc(C2CCC(N3CCC(N4CCCCC4)CC3)CC2)cc1 (stereo not shown) | 10.8
23 | CC(=O)Nc1ccc(S(=O)(=O)NC(C)c2nc(-c3ccccc3)no2)cc1 (stereo not shown) | 22.4
24 | COc1ccc(NC(C)=O)cc1CNC(=O)COc1ccccc1C(=O)Nc1cccc(C)c1C | -27.5
25 | N#Cc1c(C#N)c(-c2ccccc2)n(-c2ccc(C(=O)O)cc2)c1N | 9.1
26 | CNC(=S)/N=C/NOCc1c(Cl)cccc1Cl | -19.5
27 | O=C(COc1ccccc1)NCC(=O)N/N=C/c1ccccc1 | 12.4
28 | COc1ccc(CN(C(=O)c2cnccn2)C(C(=O)NC(C)(C)C)c2cc(OC)c(OC)c(OC)c2)cc1 (stereo not shown) | 1.58

Row | SMILES | hERG current change (%, negative = inhibition) at 10uM [%]
29 | Cc1ccc(S(=O)(=O)N2CC(O)C2)cc1 | 26.2
30 | Cn1c(SCc2nc(-c3ccc(Cl)cc3)no2)nnc1-c1ccccc1 | -22.5
31 | O=C1CC(N2CCN(c3ccc(F)cc3)CC2)C(=O)N1c1ccc(F)cc1 (stereo not shown) | 1.07
32 | COC(CNC(=O)c1ccc2c(c1)nc(C)n2-c1ccc(F)c(F)c1)OC | -26.8
33 | CCOC(=O)Cc1csc(NS(=O)(=O)c2ccc(NC(C)=O)cc2)n1 | 25.9
34 | C=CCNC(=S)NNC(=O)c1cccc(Br)c1 | 16.6
35 | CN(C)CC[C@@H](c1ccc(Br)cc1)c1ccccn1.O=C(O)/C=C\C(=O)O | -30
36 | O=[N+]([O-])c1ccc(SCCc2ccncc2)cc1 | -63.7
37 | COc1ccc(C)cc1NC(=O)C(OC(=O)CNC(=O)c1ccc(Br)cc1)c1ccccc1 (stereo not shown) | 29.1
38 | CCc1ccc(CNC(=O)CCc2cn(C)c3ccccc23)cc1 | -0.115
39 | Cc1ccnc(NC(=O)CNC(=O)c2cccs2)c1 | 20.7
40 | C#CC1(O)CC(C)N(C)C(C)C1.Cl (stereo not shown) | 5.47
41 | Cc1ccc(C)c(NC(=O)c2nnn(Cc3ccccc3C)c2N)c1 | 5.37
42 | Cc1ccc(-n2c3c(cc(C(=O)NCc4ccco4)c2=O)C(=O)CC(C)(C)C3)cc1 | -6.38
43 | Cc1ccc2c(c1)Oc1ccc(NC(=O)CCl)cc1C(=O)N2 | 3.51
44 | NS(=O)(=O)c1ccc(N=Nc2c(O)c(C(=O)O)cc3ccccc23)cc1 | 17
45 | CC1=C(C(=O)OCc2ccccc2)C(c2ccc(Br)cc2)NC(=O)N1CCCC(=O)O (stereo not shown) | 10.3
46 | O=C(Nc1cccc(O)c1)c1ccc2c(c1)C(=O)N(Cc1ccco1)C2=O | -5.31
47 | Cc1ccc(S(=O)(=O)N(C)C)cc1NC(=O)C(C)Sc1ccccc1 (stereo not shown) | -6.74
48 | CC(CCc1ccco1)NC(=O)Cn1nc(Cc2ccncc2)c2ccccc2c1=O (stereo not shown) | -46.6
49 | Cc1ccc(NC(=O)[C@H](Cc2ccccc2)NC(=O)C2CCNCC2)cc1 | 5.64
50 | COCC(=O)OCC(=O)N1N=C(c2ccc(Cl)cc2)CC1c1ccco1 (stereo not shown) | -28.1
51 | N#Cc1nc(Nc2cc(F)cc(F)c2)c2ncn(CC(F)F)c2n1 | 8.18
52 | CC(=O)N1CCN(S(=O)(=O)c2ccc(F)c(Cl)c2)CC1 | -0.621
53 | Cc1cc(C(=O)Nc2ccc(F)c(Cl)c2)on1 | 4.42
54 | COc1ccc(Cl)cc1NC(=O)Nn1cnnc1 | -0.4
55 | COc1cc(/C=C2\C(=O)N(CCC#N)N=C2C)ccc1OCC(=O)Nc1ccccc1 | -7.3

Source: PMC4336329 (PLoS ONE, 2015)
